The other results are listed elsewhere or left out. At the low end of the ranking the order means little.

This note sets out measurements from article PMC10668032.

The target of this test is SIX1 homeodomain (reference allele) (UniProt Q15475). In words: universal protein binding microarray. The note with it: Universal all-10-mer PBM (8x60K, AMADID 030236), 300 nM GST-tagged protein, Alexa Fluor 488 anti-GST; buffer, salt, pH and temperature not stated; high values mean tight binding; most listed sequences are background and not binding sites; double strand, one strand shown.
Turning to CTTATAAC, the binding signal was found to be 0.0489 E-score.

On to AACACCGT, for which the binding signal stood at 0.211 E-score.

CGATCGCC: the binding signal worked out at 0.257 E-score.

In the case of CCGGTACG, the binding signal was -0.149 E-score.

For the sequence ATAAGTTC, the binding signal is -0.0219 E-score.

On to CACGGCAC, for which the binding signal was -0.0924 E-score.

As for AGTGTTGG, the binding signal was found to be 0.00725 E-score.

On to GACTCGGC, for which the binding signal is -0.158 E-score.

Take CGCTATCA: the binding signal worked out at 0.34 E-score.

With ACCTGTGC, the binding signal is -0.174 E-score.

CCCATATA: the binding signal worked out at 0.309 E-score.

As to AAGTACTG, the binding signal is -0.18 E-score.

With CCGGAAGG, the binding signal is -0.0607 E-score.

AGTGGCAT: the binding signal is -0.166 E-score.

On to ACATTGAC, for which the binding signal is -0.0392 E-score.

For the sequence ATACTCAG, the binding signal turned out to be 0.35 E-score.

As to ACCCTCTA, the binding signal came out at 0.00043 E-score.

In the case of CCAGCATC, the binding signal was -0.0919 E-score.

On to TAGTGGCA, for which the binding signal is -0.0942 E-score.

On to CAGATGAC, for which the binding signal was -0.0271 E-score.

Regarding GATTGGTA, the binding signal came to 0.187 E-score.

As to GTGCTAAC, the binding signal was -0.141 E-score.

As for GATTCCGA, the binding signal came to 0.0823 E-score.

As for CGACTAAG, the binding signal is -0.0501 E-score.

With CCAGCCGA, the binding signal was -0.114 E-score.

As to AAATCCAA, the binding signal was -0.106 E-score.

As for AAACGGCG, the binding signal was -0.115 E-score.

As for GAAACAAC, the binding signal was -0.0446 E-score.

Take CATTAGTA: the binding signal was 0.0553 E-score.

In the case of ATATCCGC, the binding signal turned out to be 0.43 E-score.

As for AAACGATT, the binding signal was -0.112 E-score.

As for ATTTGTTG, the binding signal was -0.0928 E-score.

On to GCCTTGAC, for which the binding signal was -0.191 E-score.

Take GAGGAAGC: the binding signal is -0.161 E-score.

As for GTCGGCCA, the binding signal is -0.246 E-score.

On to CAAACCCG, for which the binding signal amounted to 0.174 E-score.

Regarding CAGTCAGG, the binding signal is -0.19 E-score.

In the case of AGTCGTTA, the binding signal was -0.169 E-score.

As to TCGTAGCA, the binding signal is -0.00509 E-score.

With AAACAGTT, the binding signal is -0.319 E-score.

In the case of CCTAAGCC, the binding signal stood at 0.0673 E-score.

Consider CGCTCCTC, for which the binding signal is -0.142 E-score.

Take ACGACCAT: the binding signal is -0.0269 E-score.

As for GATAGTGC, the binding signal was found to be 0.258 E-score.

AGGCGCCG: the binding signal was -0.246 E-score.

With CCGGGGCG, the binding signal worked out at 0.152 E-score.

As for AAATGCGA, the binding signal is -0.0358 E-score.

Take AATTAAAT: the binding signal is -0.0903 E-score.

On to GCAGGGGC, for which the binding signal is -0.11 E-score.

Regarding GCTCCAAC, the binding signal is -0.195 E-score.

On to ACTAATAG, for which the binding signal was 0.000975 E-score.

For ACACGCAA, the binding signal worked out at 0.0232 E-score.

For AGAGGGGC, the binding signal is -0.0242 E-score.

Regarding CACAGCCA, the binding signal was -0.0169 E-score.

On to CAGTCAAC, for which the binding signal is -0.274 E-score.

As for ACGGGGTA, the binding signal was 0.134 E-score.

With ATGAGAAT, the binding signal was 0.112 E-score.

In the case of AAACTATA, the binding signal came to 0.137 E-score.

Take ACTATACA: the binding signal came to 0.215 E-score.

With ACAATATA, the binding signal came out at 0.164 E-score.

As to AACAAGAT, the binding signal amounted to 0.106 E-score.

On to ACACACGA, for which the binding signal was -0.0491 E-score.

For the sequence CGCCTGAG, the binding signal is -0.0339 E-score.

As for ACAGGGGG, the binding signal is -0.0607 E-score.

For the sequence AAAGACTG, the binding signal was -0.115 E-score.

Turning to AAGTTACA, the binding signal was -0.12 E-score.

As to ACGAGCGG, the binding signal is -0.0982 E-score.

On to CCGAAGAA, for which the binding signal was -0.19 E-score.

In the case of GGATAGTA, the binding signal was determined as 0.332 E-score.

Turning to AGTGGTAA, the binding signal is -0.195 E-score.

In the case of CGGAAGAG, the binding signal is -0.134 E-score.

As to ATGCGCCC, the binding signal was -0.0158 E-score.

Turning to GCGCGCTA, the binding signal was -0.161 E-score.

For the sequence ATTGGTGG, the binding signal was -0.0194 E-score.

For the sequence AACCACAT, the binding signal was -0.102 E-score.

On to CATATTCC, for which the binding signal is 0.0359 E-score.

For CTCCCCAC, the binding signal was -0.0269 E-score.

In the case of AAGGCAAA, the binding signal was -0.157 E-score.

For AGATCGAA, the binding signal came to 0.111 E-score.

Regarding TGGTAACA, the binding signal is -0.0685 E-score.

As to AAATAGAT, the binding signal came out at 0.236 E-score.

CCAGGAGG: the binding signal came out at 0.104 E-score.

With CCCGCTCC, the binding signal is -0.0512 E-score.

Regarding TACATCGA, the binding signal was found to be 0.111 E-score.

In the case of TCTGCGCA, the binding signal was -0.033 E-score.

Take AGTGGGGG: the binding signal is -0.024 E-score.

Turning to CGGTGCAA, the binding signal is 0.0597 E-score.

Regarding CGGTTATC, the binding signal is 0.309 E-score.

With AACTTGGC, the binding signal was -0.177 E-score.

In the case of CCGACGAC, the binding signal is -0.0111 E-score.

On to TACCCACA, for which the binding signal amounted to 0.196 E-score.

Consider CAACTCTA, for which the binding signal is -0.0441 E-score.

For GAGCCAGA, the binding signal was -0.0265 E-score.

On to CAATTGGC, for which the binding signal was -0.25 E-score.

On to TCATTGCA, for which the binding signal stood at 0.0262 E-score.

Take ACCAACAC: the binding signal was 0.0946 E-score.

CAGCCCCG: the binding signal is -0.222 E-score.

For ACTTCAGC, the binding signal is -0.213 E-score.

For the sequence ATTACGTG, the binding signal worked out at 0.107 E-score.

Turning to ATACATTA, the binding signal worked out at 0.223 E-score.

AGGTGTAG: the binding signal was 0.128 E-score.

As for ACTGCGAG, the binding signal was -0.0126 E-score.

As to AACCAGAT, the binding signal worked out at 0.25 E-score.

For the sequence GATGCGCA, the binding signal is -0.0453 E-score.

Regarding ATTAATAG, the binding signal is 0.108 E-score.

On to AATTGTGC, for which the binding signal is -0.12 E-score.

For the sequence CTAGGATA, the binding signal is 0.356 E-score.

For the sequence ACGAAAGA, the binding signal was -0.179 E-score.

As for AGAATCTC, the binding signal stood at 0.0712 E-score.

Turning to GATGAATC, the binding signal was -0.0298 E-score.

Regarding CACAACTA, the binding signal was -0.0462 E-score.

On to ATTCGTGG, for which the binding signal is -0.00769 E-score.

Take ATGTTTCG: the binding signal was -0.103 E-score.

In the case of AATACCTA, the binding signal amounted to 0.289 E-score.

As for AGCTTTCC, the binding signal was -0.286 E-score.

As to GATTCGGA, the binding signal turned out to be 0.0449 E-score.

Regarding AGAATACC, the binding signal worked out at 0.312 E-score.

As for GGGTTACC, the binding signal is -0.078 E-score.

For the sequence AGTATCAG, the binding signal is 0.46 E-score.

Regarding ATGCGACA, the binding signal came to 0.0591 E-score.

Consider CCTGACCA, for which the binding signal was determined as 0.0126 E-score.

As to CATGCGGG, the binding signal is -0.0794 E-score.

Consider AAGCCAAG, for which the binding signal is -0.366 E-score.

As to AAGATCCT, the binding signal is 0.326 E-score.

Consider AGCCCAAC, for which the binding signal was -0.167 E-score.

GAACGCTC: the binding signal was -0.315 E-score.

With ACATCGAC, the binding signal was -0.0677 E-score.

In the case of ACCAGCGA, the binding signal was -0.0469 E-score.

With CGCGACCG, the binding signal is -0.0603 E-score.

For TCTGCAAA, the binding signal was -0.0747 E-score.

As to ACGGTGTA, the binding signal amounted to 0.255 E-score.

For the sequence GTACCTCA, the binding signal is -0.00259 E-score.

CCCCTACG: the binding signal is 0.103 E-score.

On to CCGTTCGC, for which the binding signal was -0.099 E-score.

With TATCCCAA, the binding signal is 0.329 E-score.

On to AGTAGCGC, for which the binding signal is -0.0582 E-score.

As to CATAAAGG, the binding signal stood at 0.0642 E-score.

CAACTCCG: the binding signal was 0.00865 E-score.

As to GTAGTCGA, the binding signal was -0.194 E-score.

Take CTAGATAA: the binding signal was found to be 0.123 E-score.

Regarding CACCAAGC, the binding signal was 0.00477 E-score.

Take GATATAAA: the binding signal was determined as 0.184 E-score.

Regarding AACCGATG, the binding signal is -0.0251 E-score.

Regarding AGACATCT, the binding signal is -0.055 E-score.

With AGTCGCGC, the binding signal is -0.23 E-score.

Take CTCCAGAG: the binding signal was found to be 0.00688 E-score.

With GCTTGCAA, the binding signal is -0.0604 E-score.

With GAAAAAAA, the binding signal is -0.196 E-score.

As for ACCTTTAG, the binding signal was 0.0337 E-score.

As for CAGTACGA, the binding signal turned out to be 0.0572 E-score.

Take AGACCGAC: the binding signal turned out to be 0.0307 E-score.

For TTACCCAA, the binding signal is -0.23 E-score.

GAATGGAC: the binding signal was -0.217 E-score.

As to GAAGATTC, the binding signal is -0.234 E-score.

For CTCGTGAA, the binding signal is -0.0207 E-score.

With CCACATCG, the binding signal was -0.127 E-score.

As to ACTCTACT, the binding signal is -0.132 E-score.

With ATTGTTCA, the binding signal is 0.0125 E-score.

Turning to AATGCAAG, the binding signal is -0.2 E-score.

In the case of ATGTCAGG, the binding signal was -0.143 E-score.

Consider AGAGAAAC, for which the binding signal was -0.0485 E-score.

Take ATAGCGGA: the binding signal amounted to 0.227 E-score.

Consider CAGGGTCA, for which the binding signal is -0.053 E-score.

With TACAGAGA, the binding signal was 0.03 E-score.

As for CCTACCTA, the binding signal is -0.0681 E-score.

On to CGCTGTAG, for which the binding signal is -0.134 E-score.

CGGGTATC: the binding signal came out at 0.487 E-score.

For CAATGAGG, the binding signal was -0.164 E-score.

Take ACCTCGCA: the binding signal is -0.221 E-score.

Consider TCCACTAA, for which the binding signal was -0.00623 E-score.

On to CAGTGAAA, for which the binding signal is -0.0917 E-score.

As to CTTGAATA, the binding signal turned out to be 0.01 E-score.
